According to PubChem BioAssay AID686979 (National Center for Advancing Translational Sciences (NCATS), 2013):
Hit rate of the full screen: of about 420,000 compounds, about 50,000 (12%) were called active. Inconclusive means that the source gave no clear call. Such entries were picked first, then a sample of the others. Calls follow the shape of the dose curve; as a rule, active = well fitted inhibition curve with a large enough effect; inconclusive = small, poorly fitted or top-dose-only effect; inactive = flat fitted curve, though single readings scatter. Potencies of inconclusive entries are left out as doubtful fits.

assay: qHTS for Inhibitors of human tyrosyl-DNA phosphodiesterase 1 (TDP1): qHTS in cells in presence of CPT; conditions: chicken DT40 Tdp1-/-;hTDP1 cells + 20 nM CPT, ATP luminescence, 48 h; activity change, negative = growth inhibition: at 46.2 µM (top of the series) unless noted; also: nearly all actives have a fitted effect of over 55% in size
How it was run: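 Cell growth measured by CellTiter-Glo luminescence after a minimum 48 h, 37 C compound exposure with 20 nM CPT in Tdp1-knockout DT40 cells stably expressing hTDP1, seeded 400/well; qHTS titration format.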
% is scaled to controls: 0 for no effect and ±100 for the full control effect; potency is read from the fitted curve at half-maximal effect; tags tell the direction and shape of the fitted curve.

Structure (SMILES)	activity change, negative = growth inhibition	Potency
COc1ccc(NC(=O)N(C)C[C@H]2OCCCC[C@H](C)Oc3ccc(NS(=O)(=O)c4cn(C)cn4)cc3C(=O)N([C@H](C)CO)C[C@@H]2C)cc1	inactive: 9.57%	–
COc1ccc(-n2ncc(C(=O)N3CCN(C4CCCCC4)CC3)c2C2CCN(C(=O)OC(C)(C)C)CC2)cc1	–	inconclusive [inhibitor, single point]
COc1ccc(NC(=O)CN(C)Cc2cccs2)cc1Cl	–	inconclusive [inhibitor, single point]
COC(=O)c1cccc(CSC(=S)N2CCCC2)c1	–	inconclusive [inhibitor, single point]
C=CCc1ccccc1OCc1nc2ccc(C)cc2[nH]1	–	inconclusive [inhibitor, single point]
Cc1ccccc1NC(=O)CC1NCCNC1=O (centres undefined)	inactive: 5.22%	–
CN(C)c1ccc(C2C3CCCc4ccccc4C3=NN2C)cc1 (centres undefined)	–	inconclusive [inhibitor, single point]
O=C(NC1CCCCC1)C(c1cc2ccccc2o1)n1c(=O)c(-c2ccco2)nc2ccccc21 (centres undefined)	–	inconclusive [inhibitor, single point]
Cc1ccc(NC(=O)c2c3c(nc4ccccc24)C(=O)N(C2CCCCC2)C3)cc1F	–	active: 8.2 µM
CCOc1cc(CNCCO)cc(Br)c1OCc1ccc(Cl)cc1	–	active: 25.9 µM
O=S(=O)(c1c(F)cccc1F)N(CCc1ccc(F)cc1)C[C@@H](O)COCc1ccccc1	–	inconclusive [inhibitor, single point]
COC(=O)c1ccccc1NC(=O)CSc1nc2cccnc2n1C	–	inconclusive [inhibitor, single point]
O=C(Nc1nccs1)c1cc2c(s1)-c1ccccc1OC2	–	inconclusive [inhibitor, single point]
COc1ccc(CNC(=O)c2ccc(C(C)C)cc2)cc1	inactive: 20.3%	–
CC(C)CNC(=O)C1Nc2ccccc2C2C=CCC12 (centres undefined)	–	inconclusive [inhibitor, single point]
CC(=O)c1ccc(NC(=O)CSc2nnc(-c3ccco3)c(-c3ccco3)n2)cc1	–	inconclusive [inhibitor, single point]
O=C(CN1CCCC1)Nc1cccc(Cl)c1Cl	inactive: 8.28%	–
CCCCN(C(=O)c1cc(CN2C(=O)c3ccccc3C2=O)ccc1OC)c1c(N)n(CC(C)C)c(=O)[nH]c1=O	inactive: -8.98%	–
S=C(NC1CCCC1)N1CCN(C/C=C/c2ccccc2)CC1	–	inconclusive [inhibitor, single point]
CCN(CC)S(=O)(=O)c1ccc2c(c1)c(=O)c(C(=O)NCCc1ccccc1)cn2C	–	inconclusive [inhibitor, partial curve]
CCc1ccc(-c2cc(C)no2)cc1S(=O)(=O)N1CCN(c2cc(C)ccc2C)CC1	–	inconclusive [inhibitor, single point]
CCc1c(C(C)=O)oc2ccc3c(C)cc(=O)oc3c12	inactive: -4.97%	–
c1ccc(CN2CCN(c3nc(NCc4ccco4)c4ccccc4n3)CC2)cc1	–	inconclusive [inhibitor, single point]

Structure (SMILES)	activity change, negative = growth inhibition	Potency
O=C(c1cn(CC2CCCN(Cc3cc4ccccc4s3)C2)nn1)N1CCCC1 (centres undefined)	inactive: 11.8%	–
C1=C[C@H]2CCCN3CC[C@@H]([C@@H]2[C@]32CO2)[C@H]1CCOCc1ccccc1	–	inconclusive [inhibitor, single point]
CCCNC(=O)CSc1c2c(nc3ccc(Cl)cc13)CCCC2	–	inconclusive [inhibitor, single point]
Cc1ccc(Oc2ncnc(N)c2[N+](=O)[O-])cc1C	inactive: -20.2%	–
CCCn1c2ccccc2c2cnn(CC(=O)N(CC)c3cc(C)ccc3C)c(=O)c21	–	inconclusive [inhibitor, single point]
Cc1nnc(SCC(=O)NC(C)c2ccccc2)[nH]c1=O (centres undefined)	inactive: 4.68%	–
Cc1nc2c(OCc3ccc(C#N)cc3)cccn2c1N(C)Cc1cccs1	–	inconclusive [inhibitor, single point]
CCN(c1ccccc1)S(=O)(=O)c1ccc(Cl)c(C(=O)NCCc2ccc(OC)cc2)c1	–	active: 18.4 µM
Cc1cccc(N2CCN(C(=O)c3cnn(-c4ccc(F)cc4F)c3C3CCN(C(=O)OC(C)(C)C)CC3)CC2)c1C	–	active: 20.6 µM
Cc1ccc(CNC(=O)Cn2nc(N3CCN(c4ccccc4)CC3)ccc2=O)cc1	inactive: -3.34%	–
Cc1nc(SCC(=O)N(C)C2(C#N)CCCCC2)c2ccccc2n1	–	inconclusive [inhibitor, single point]
CCOc1ccc(NC(=O)CC2C(=O)N(c3ccccc3)C(=O)N2C2CCCC2)cc1 (centres undefined)	–	inconclusive [inhibitor, single point]
Cc1ccc(C2/C(=C(\O)c3ccc4c(c3)OCCO4)C(=O)C(=O)N2Cc2cccnc2)cc1 (centres undefined)	inactive: -6.47%	–
CCOc1ccccc1NC(=O)CCNC(=O)Cn1ccc2ccccc2c1=O	inactive: -14.2%	–
CCc1ccccc1NC(=O)c1ccc(Cn2nc(N3CCN(c4ccccc4)CC3)ccc2=O)o1	–	active: 14.6 µM
Cc1ccc(CSCC(=O)N(C)CC(=O)Nc2ccc(Cl)c(Cl)c2)cc1	–	inconclusive [inhibitor, single point]
O=C(NNC(=O)c1ccccc1C(F)(F)F)c1csc(N2CCOCC2)n1	inactive: 3.7%	–
COc1ccc(N2CCN(C3CCCN(Cc4cccc(C)c4)C3)CC2)cc1 (centres undefined)	–	inconclusive [inhibitor, single point]
Cc1ccc(C2C=C(c3ccccc3)Nc3nc(NS(=O)(=O)c4ccc(C)cc4)nn32)cc1 (centres undefined)	–	inconclusive [inhibitor, single point]
Cc1ccc(SC[C@H](Cc2ccccc2)N2CC[C@@H](C(C)(C)C)CCC2=O)cc1	–	inconclusive [inhibitor, single point]
CC[C@]12c3[nH]c4cc(-c5ccco5)ccc4c3CCN1C(=O)[C@@H](CC(=O)NCCCN(C)C)C[C@@H]2C(=O)N1CCN(C(=O)C2CC2)CC1	inactive: 2.64%	–
O=C(Nc1nc(-c2ccccc2)cs1)c1ccc(N2CCOCC2)c([N+](=O)[O-])c1	–	active: 14.6 µM
Cc1ccc2oc(=O)c3cnn(CC(=O)N4CCN(c5ccccc5F)CC4)c3c2c1	–	inconclusive [inhibitor, single point]

Structure (SMILES)	activity change, negative = growth inhibition	Potency
COc1cc2c(cc1OC)C1(Nc3c-2c(Cc2ccccc2)nn3-c2ccccc2)C(=O)Nc2ccccc21 (centres undefined)	–	inconclusive [inhibitor, single point]
Cc1cc(Cl)ccc1NC(=S)NCC(O)c1ccccc1 (centres undefined)	–	inconclusive [inhibitor, single point]
Clc1ccc(-n2cccc2/C=N/n2cnnc2)cc1	–	inconclusive [inhibitor, partial curve]
Cc1ccc(NC(=O)Nc2cn(C)c(=O)c3ccccc23)c(Cl)c1	–	inconclusive [inhibitor, partial curve]
O=C(C1CCN(S(=O)(=O)c2ccc3ccccc3c2)CC1)N1CCN(c2ncccn2)CC1	–	inconclusive [inhibitor, partial curve]
O=C(Nc1nnc([C@H]2C[C@H](O)[C@@H](CO)O2)s1)NC1CCCCC1	inactive: 13.6%	–
CC(=O)NC(N1CCCCC1)C(F)(F)C(F)(F)C(F)(F)C(F)F (centres undefined)	inactive: -9.35%	–
CCOC(=O)C/C(C)=N\Nc1nc(-c2ccccc2)cs1	–	inconclusive [inhibitor, single point]
Cc1ccc(S(=O)(=O)Nc2nc3cc(C)c(C)cc3[nH]2)cc1	–	inconclusive [inhibitor, partial curve]
COc1ccccc1NC(=O)CSc1n[nH]c(-c2ccccn2)n1	–	inconclusive [inhibitor, single point]
CCOc1cc(S(=O)(=O)Nc2ccccc2CC)ccc1Cl	inconclusive: -30.7% [inhibitor]	–
CN(C)C(=O)c1ccc(Nc2nc(-c3cccs3)nc3ccccc23)cc1	–	active: 10.3 µM
N#Cc1ccccc1COC(=O)c1ccc2c(c1)OCCO2	–	inconclusive [inhibitor, full curve, poor fit]
COc1cccc(NC(=O)c2sc3nc(C)c(C(=O)Nc4ccc(C)cc4C)c(-c4ccco4)c3c2N)c1	–	inconclusive [inhibitor, single point]
COc1ccc(OCC(=O)Nc2cccc(C(=O)OCc3cc(=O)n4nc(C)sc4n3)c2)cc1	–	inconclusive [inhibitor, single point]
CCc1cccc(NC(=O)CSc2nc3ccccc3nc2N2CCCCC2)c1	–	active: 11.6 µM
O=C(O)c1cccnc1SC1CC(=O)N(c2ccc(OC(F)F)cc2)C1=O (centres undefined)	–	inconclusive [inhibitor, single point]
O=C(CSc1nnc2ccccn12)NNC(=O)c1cccc(Cl)c1	inactive: 0.495%	–
CCCCNC(=O)c1cc2n(n1)C(C(F)(F)F)CC(c1ccccc1)N2 (centres undefined)	inactive: -23.8%	–
Cc1nn(-c2ccccc2)c2sc(C(=O)Nc3cccc(Cl)c3)cc12	–	inconclusive [inhibitor, single point]
COc1ccc(CN2CC(=O)N(c3ccc(C)cc3)C2=S)cc1OC	inactive: -0.0368%	–
O=C(O)C(O)C(O)(Cc1ccc(O)cc1)C(=O)O (centres undefined)	inactive: 16.1% [at 9.04 µM]	–
O=C1CC(/C=C/c2ccc([N+](=O)[O-])cc2)=Nc2ccccc2N1	–	inconclusive [inhibitor, single point]
